Consider 14 molecules from publication PMC12136788.

The other results are listed elsewhere or left out.

The chains are these.
B1: chr19:6534681:6534787:+|CDS|ENSG00000125657|unk|FALSE|unique (ssRNA)
RNA: GGGAGUUCUACAGUCCGACGAUCAGAGGACACGAAGGAGCUGGUGGUGGCCAAGGCUGGAGUCUACUAUGUCUUCUUUCAACUAGAGCUGCGGCGCGUGGUGGCCGGCGAGGGCUCAGGCUCCGUUUCACUUGCGCUGCACCUCAACAGAGGAUUGAGCAUCA
B2: chr19:33301014:33301115:-|3pUTR|ENSG00000245848|unk|total|mutant (ssRNA)
RNA: GGGAGUUCUACAGUCCGACGAUCUCCCUGCGAGGAGGGGAGAAUUCUUGGGGCUGAGCUGGGAGCCCGGCAACUCCCGUAUUCCGGAUAACCUUGUGCCUUGGAAAUGCAAACUCACCGCUCCAAUGCCUACUGAGCCGGGGGCAACAGAGGAUUGAGCAUCA
B3: ENSG00000171649:stop:overlap|stop_codon|ENSG00000171649|stop_codon|NA|stop_codon (ssRNA)
RNA: GGGAGUUCUACAGUCCGACGAUCCUCAGGUUGUGGCCAUGGAACAGAGGAUGAAGAGACACCUUCUGACCAGAAUGUUUCUGUAGGAGUGUCACAGUCAAAGGCAGGUUCAUCCACACAGAAGACUCAAUCCUGUGAGAUGUGCAACAGAGGAUUGAGCAUCA
B4: chr15:32969305:32969406:-|CDS|ENSG00000248905|unk|FALSE|unique (ssRNA)
RNA: GGGAGUUCUACAGUCCGACGAUCCGAGCAUGCAAUGAUAACAGCGAGACUAGAAGAAACCAUUGAAAAUCUGAAACACGAGCUAGAACACAGAUGGCGAGGGGGUUGUGAAGAGAGGAAAGAUGUGUGCAUUUCCACCGAUGACAACAGAGGAUUGAGCAUCA
B5: chr1:193013303:193013404:-|3pUTR|ENSG00000116750|unk|FALSE|unique (ssRNA)
RNA: GGGAGUUCUACAGUCCGACGAUCAAACCACUCUAGCUAUUUGAAGAGGAAUGCAGAUUUAUAUUGGGAGUUUUGAAACUACAUAGUUUCUUACAAAAUCAUUGGAAGGUUUGGAGGAGCGGUUUCAAGCUUAAGUCUCCAGAGCAACAGAGGAUUGAGCAUCA
B6: chrX:120258281:120258382:+|3pUTR|ENSG00000177485|msi1|FALSE|bound_elsewhere (ssRNA)
RNA: GGGAGUUCUACAGUCCGACGAUCUGUACAAUCUUCCCUGUCAUGACUUUAAGUUCUACUUUUCAUUAACCAUGGCCUGAUAUUAGUUCUUAGAGCUUCUUGUGGCAAAAAUAAAAUGAUUUAAUUCUGAUGUUUGAGUGCGUGCAACAGAGGAUUGAGCAUCA
B7: chr3:9371215:9371332:+|CDS|ENSG00000134077|unk|total|mutant (ssRNA)
RNA: GGGAGUUCUACAGUCCGACGAUCUGGACAAGAAGUCAAAAUCGAUCAGAGAAAUGUUAAAAAAGAGUUCACCCGCCAUGCUUCCGAUUCUCAUAUCUCCGAUUAUUAUGAAAAUCCAGCCAUCAAAGAGGAUGUAUCAACAUUCAACAGAGGAUUGAGCAUCA
B8: ENSG00000198589:be:win_3401|CDS|ENSG00000198589|bound_else_gene|NA|bound_elsewhere_windowed (ssRNA)
RNA: GGGAGUUCUACAGUCCGACGAUCUGUCUCCAGCUGCAUCUGAAGCCGGUGAAAAACUGGACAUGUUUGGUAAUGAUGACAAAUUAAUAUUUCAAGAAGGAAAACCUGUUACUGAAAAGCAAACUGAUACUGAAACUCAAGAUUCAACAGAGGAUUGAGCAUCA
B9: chr7:76302746:76302847:+|CDS|ENSG00000106211|unk|total|mutant (ssRNA)
RNA: GGGAGUUCUACAGUCCGACGAUCGUCCCCUUCUCGCUCCUGCGGGGCCCCAGCUGGGACCCCUUCCGCGACUGGUACCCGCACCGCCGCCUCUUCGACCAGGCCUUCGGGCUGCCCCGGCUGCCGGAGGAGUGGUCGCAGUGGCAACAGAGGAUUGAGCAUCA
B10: chr3:58172026:58172127:+|3pUTR|ENSG00000136068|msi1|total|mutant (ssRNA)
RNA: GGGAGUUCUACAGUCCGACGAUCGGCAGACCUUCCGGUUUUGCUGCUCCGUCCUGAGGAAGUGGCCACUCUUGUGGCAGGUGCCGUAUCUGGGGCGAGUGUUGGGGGUAAAAGCCCACCCUACAGAAAGUGGAACAGCCCGGACAACAGAGGAUUGAGCAUCA
B11: chr8:116846039:116846140:-|3pUTR|ENSG00000164754|msi1|total|mutant (ssRNA)
RNA: GGGAGUUCUACAGUCCGACGAUCACAUUCAAUAUGAUGUGCCUGUAAACCAAGGAGUUUUCCCCGUUUGUAAAAAGACAUUGCCGAUAAUUGAAUGUUUGAUUUCCGAAAGGUCAUCCGUUUCUUGUUACACAUUUUGUCCGUCAACAGAGGAUUGAGCAUCA
B12: chr3:21421216:21421447:-|CDS|ENSG00000151789|control|control|control (ssRNA)
RNA: GGGAGUUCUACAGUCCGACGAUCAUUAGUAUUUUCAAAAGAACCUUCAAAGCCAUUGGCUCCACGAAUUCUACCAAAUCCUCUAGCAGCUGCAGCAGCCGCAGCAGCAGUGGCAGUGAGUUCCCCCUUCAGUCUUCGAACUGCCAACAGAGGAUUGAGCAUCA
B13: chr5:123575802:123575904:+|CDS|ENSG00000151292|unk|total|mutant (ssRNA)
RNA: GGGAGUUCUACAGUCCGACGAUCACCUGAGAACUUCUUAACCGGACGACCAGGAAACAAAACCCAGCAAGUUAUUCACAUUACCGAUUUUGGUUUGGCAAAGGAAUAUAUUGAUCCGGAGACAAAGAAACACAUACCAUACAGCAACAGAGGAUUGAGCAUCA
B14: chr4:152882748:152882856:+|CDS|ENSG00000164144|unk|FALSE|unique (ssRNA)
RNA: GGGAGUUCUACAGUCCGACGAUCCAGAAACUGCUGGCUAAAAAUGGAGAGACUCUUCUUGGGGCCAUUAAUUUUUUCAUUGCUAGUGUGAACACUUUGGUGAAUAAAACCAUUGAAGAUACAUUAAUGACUGUGAAACAGUAUCAACAGAGGAUUGAGCAUCA

The assay concerns the target MSI1 full-length (mouse, UniProt Q61474 1-362). The experiment in a line: nsRBNS (natural sequence RNA bind-n-seq); RBNS binding buffer (assumed for nsRBNS): 25 mM Tris pH 7.5, 150 mM KCl, 3 mM MgCl2, 0.01% Triton X-100, 500 ug/ml BSA, 20 U/ml SUPERase-In, 4 C; UNK is unkempt and MSI1 is Musashi-1; names of the RNAs are library labels; protein concentration not given here; high values mean tight binding.
Sequence of UniProt Q61474 (Q61474 whole entry): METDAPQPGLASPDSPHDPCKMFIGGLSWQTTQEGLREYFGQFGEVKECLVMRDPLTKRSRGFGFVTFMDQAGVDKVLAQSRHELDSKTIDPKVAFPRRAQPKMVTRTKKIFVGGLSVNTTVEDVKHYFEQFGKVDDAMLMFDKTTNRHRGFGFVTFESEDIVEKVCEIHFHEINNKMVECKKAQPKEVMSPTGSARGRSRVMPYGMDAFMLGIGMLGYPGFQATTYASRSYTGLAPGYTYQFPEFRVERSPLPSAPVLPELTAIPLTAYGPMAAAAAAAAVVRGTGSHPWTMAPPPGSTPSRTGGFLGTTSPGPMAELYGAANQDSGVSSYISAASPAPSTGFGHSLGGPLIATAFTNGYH
B1 displayed a binding signal of 0.554 enrichment R.

The molecule B2 had a binding signal of 0.362 enrichment R.

On to B3, for which the binding signal is 0.359 enrichment R.

B4 registered a binding signal of 0.963 enrichment R.

B5: the binding signal was determined as 0.404 enrichment R.

For B6, the binding signal was found to be 0.662 enrichment R.

Regarding B7, the binding signal worked out at 0.231 enrichment R.

Regarding B8, the binding signal came out at 0.199 enrichment R.

Turning to B9, the binding signal is 0.673 enrichment R.

In turn, B10 came in with a binding signal of 0.42 enrichment R.

Molecule B11 gave a binding signal of 0.216 enrichment R.

B12: the binding signal is 0.901 enrichment R.

As to B13, the binding signal was determined as 0.398 enrichment R.

Regarding B14, the binding signal turned out to be 0.284 enrichment R.
